Experimental data from PubChem BioAssay AID463173 (ICCB-Longwood Screening Facility, Harvard Medical School, 2010).
Out of some 52,000 compounds screened, about 4,300 (8.3%) were called active. Cut-off read from the data, not from the text of the source: active = survival mostly below about 52% (no sharp cut-off); inactive = mostly above about 56%. Some of the results follow.

test system: DeltatarO mutant; experiment: S. aureus survival, RN4220 and DeltatarO strains – OD600, teichoic acid synthesis inhibitors, primary screen (AID 463173); conditions: S. aureus RN4220 wild type/DeltatarO growth, OD600, 18 h, active compounds read low, screened at 18.75 µg/mL (by protocol)

Structure (SMILES)	survival
COc1ccc(NC(=O)Cn2cnc3c(nc4n3CCCCC4)c2=O)c(OC)c1	inactive: 84%
COCCCn1c(=N)c(C(=O)NC2CCCCC2)cc2c(=O)n3ccccc3nc21	inactive: 78%
CCOC(=O)c1ccc(N2C(=O)c3n[nH]c(C)c3C2c2ccc(O)c(OC)c2)cc1 (stereo not given)	inactive: 115%
COc1ccc(N2CCN(C(=O)Cn3cnc4sc(C)c(S(=O)(=O)N5CCC(C)CC5)c4c3=O)CC2)cc1	inactive: 142%
Cc1ccc(-n2ncc(C(=O)N3CCN(c4ccccn4)CC3)c2C2CCN(C(=O)OC(C)(C)C)CC2)cc1C	inactive: 72%
Cc1cc(=O)oc2c3c(ccc12)OCN(Cc1ccccc1Cl)C3	inactive: 75%
Cc1cccc(CS(=O)(=O)CC2Nc3ccc(C(=O)NCc4ccccc4)cc3NC2=O)c1 (stereo not given)	inactive: 79%
CCOC(=O)c1ccccc1NC(=O)Cc1c(C(=O)O)c(C)cn1C	active: 17%
COc1ccc(S(=O)(=O)NCc2cccn2Cc2cccc(C)c2)cc1OC	inactive: 83%
CCOC(=O)c1c(-c2ccccc2)oc2ccc(NS(=O)(=O)c3ccccc3)cc12	active: 35%
CCCCc1nn2c(=O)cc(COC(=O)c3ccccc3NC(=O)C3CCCCC3)nc2s1	inactive: 71%
CCN(C(=O)CSc1nnc(C)n2c1cc1occc12)c1ccccc1	inactive: 104%
CCOc1ccc(NC(=O)c2cc3c(=O)n4cccc(C)c4nc3s2)cc1	inactive: 51%
Cc1cc([N+](=O)[O-])ccc1NC(=O)CSc1nccn1C	inactive: 138%
COc1ccc(CNC(=O)c2cnc(N3CCCC3)nc2C)cc1	inactive: 71%
Cc1cccc(NC(=O)CSc2nc(=O)n(CCN3CCOCC3)c3c2CCC3)c1C	inactive: 87%
CCCC(=O)NCc1nc2cccnc2n1Cc1ccc(F)cc1	inactive: 77%
Cc1cccc(Cn2nnc3c(=O)[nH]c(C4CCN(C(=O)c5ccccc5F)CC4)nc32)c1	inactive: 46%
Cc1ccc(NC(=O)Cn2c(=O)n(Cc3ccc4c(c3)OCO4)c(=O)c3ccc(C(=O)NC4CCCCC4)cc32)cc1	inactive: 79%
CCOC(=O)c1ccc(NC(=O)Cc2coc3cc(C)cc(C)c23)cc1	inactive: 60%
Cc1cccc2sc(N(Cc3cccnc3)C(=O)C3CCCCC3)nc12	inactive: 83%
COc1ccc(S(=O)(=O)c2cn(CC(=O)Nc3ccccc3)c3ccc(Cl)cc3c2=O)cc1	inactive: 82%
COc1ccc(CSc2nc3ccncc3n2Cc2nc(-c3ccc(OC)c(OC)c3)oc2C)cc1	inactive: 56%

Structure (SMILES)	survival
COc1cccc(NC(=O)N2C3CCC2CC(O)(c2cccnc2)C3)c1 (stereo not given)	inactive: 77%
COc1ccc(-c2c(C)c3ccc(O)c(CN4CCN(C)CC4)c3oc2=O)cc1OC	inactive: 80%
COc1ccc2c(c1)c1c(c(=O)n(-c3cccc(Cl)c3)c(=O)n1C)n2C	inactive: 75%
CCOC(=O)c1c(C)c(C(=O)NCCc2ccc(OC)cc2)c(C)n1CC	inactive: 101%
CC(=O)c1c(C)n(-c2cccc(C)c2)c2ccc(OC(=O)COc3ccccc3)cc12	inactive: 70%
COc1cccc(-c2cc(C(=O)NCCc3ccc(C)cc3)[nH]n2)c1	inactive: 104%
Clc1nc(Cl)nc(NCCC2=CCCCC2)n1	inactive: 126%
CCOc1ccc(CNC(=O)Cn2nc(C)c3sc4ccccc4c3c2=O)cc1	inactive: 113%
COc1ccccc1CNC(=O)Nc1ccc2c(c1)N(C)C(=O)c1ccccc1S2	inactive: 70%
O=C(CSc1nc2c([nH]c3ccccc32)c(=O)n1-c1ccc(F)cc1)N1CCCCCC1	inactive: 55%
COc1ccc(Br)cc1CNC(=O)CCC(=O)N1CCSc2ccccc21	active: 41%
CN(C(=O)c1cccc(Nc2ccc(-c3ccc4c(c3)OCCO4)nn2)c1)C1CCCCC1	inactive: 78%
O=C(Cn1cc(SCc2cccc(C(F)(F)F)c2)c2ccccc21)N1CCCCCC1	inactive: 90%
CN1C(=O)C2CCCCN2c2ccc(C(=O)NCc3ccccc3Br)cc21 (stereo not given)	inactive: 57%
COc1cc(NC(=O)CCc2c(C)nc3c(c(C)nn3-c3ccccc3)c2C)cc(OC)c1OC	inactive: 60%
COc1cccc2cc(-c3nc(-c4cccs4)no3)c(=O)oc12	inactive: 67%
CCOC(=O)c1c(-c2ccc(C)cc2)csc1NC(=O)c1cc(=O)c2cc(C)c(C)cc2o1	inactive: 62%
Cc1ccc(NC(=O)C2CCN(c3nc4ccccc4[nH]3)CC2)cc1Cl	inactive: 94%
NC(=O)c1cc(Cl)nc2ccccc12	inactive: 81%
O=C(NCc1cccs1)c1ccc(CSc2nc3ccncc3n2Cc2cccc(F)c2)cc1	inactive: 63%
CCc1nn(CC(=O)Nc2c(C)cc(C)cc2C)c(=O)c2cc3sccc3n12	inactive: 128%
C=Cc1ccc(Cn2c(=O)n(-c3ccccc3C)c(=O)c3c4c(sc32)CN(C(C)=O)CC4)cc1	inactive: 72%
